This is one part of the list.

The chains are these.
B1: PhoQ; a variant is named by its letters at X, in order, P23837 (parent)
chain: MKKLLRLFFPLSLRVRFLLATAAVVLVLSLAYGMVALIGYSVSFDKTTFRLLRGESNLFYTLAKWENNKLHVELPENIDKQSPTMTLIYDENGQLLWAQRDVPWLMKMIQPDWLKSNGFHEIEADVNDTSLLLSGDHSIQQQLQEVREDDDDAEMTHSVAVNVYPATSRMPKLTIVVVDTIPVELKSSYMVWSWFIYVLSANLLLVIPLLWVAAWWSLRPIEALAKEVRELEEHNRELLNPATTRELTSLVRNLNRLLKSERERYDKYRTTLTDLTHSLKTPLXXLQXXLRSLRSEKMSVSDAEPVMLEQISRISQQIGYYLHRASMRGGTLLSRELHPVAPLLDNLTSALNKVYQRKGVNISLDISPEISFVGEQNDFVEVMGNVLDNACKYCLEFVEISARQTDEHLYIVVEDDGPGIPLSKREVIFDRGQRVDTLRPGQGVGLAVAREITEQYEGKIVAGESMLGGARMEVIFGRQHSAPKDE

The variants in the assay derive from B1. Kind of assay: enrichment ratio after two sorts for PhoP signalling (ratio (wild type AVST 3.29)); higher = more functional. To be noted: with PhoP (E. coli).
For NWFD, the enrichment ratio is ≤ 0.25.

On to ACGV, for which the enrichment ratio was ≤ 0.25.

In the case of TNKG, the enrichment ratio was ≤ 0.25.

As for PPNF, the enrichment ratio was ≤ 0.25.

In the case of YPDR, the enrichment ratio was determined as 7.08.

As for NEKR, the enrichment ratio was ≤ 0.25.

For the variant GHIA, the enrichment ratio was ≤ 0.25.

As to TAIN, the enrichment ratio worked out at 1.36.

For the variant SELN, the enrichment ratio came to 8.08.

Take SNMV: the enrichment ratio was 18.5.

For the variant QNHM, the enrichment ratio was ≤ 0.25.

Take TPET: the enrichment ratio is ≤ 0.25.

For HDHA, the enrichment ratio is ≤ 0.25.

As for WNVY, the enrichment ratio was ≤ 0.25.

Take QISS: the enrichment ratio was found to be 3.03.

FVGF: the enrichment ratio is ≤ 0.25.

For the variant SHEA, the enrichment ratio was ≤ 0.25.

Turning to TWGC, the enrichment ratio was ≤ 0.25.

Consider HMHR, for which the enrichment ratio was ≤ 0.25.

With AVFS, the enrichment ratio is ≤ 0.25.

Consider RLVR, for which the enrichment ratio was ≤ 0.25.

For PQMA, the enrichment ratio is ≤ 0.25.

Take AWTG: the enrichment ratio is ≤ 0.25.

As to GDSI, the enrichment ratio turned out to be 5.59.

On to GWLL, for which the enrichment ratio is ≤ 0.25.

EFGE: the enrichment ratio was ≤ 0.25.

Turning to TKTV, the enrichment ratio was found to be 20.

In the case of HMPE, the enrichment ratio is ≤ 0.25.

Turning to FDDN, the enrichment ratio is ≤ 0.25.

For the variant VNPC, the enrichment ratio is ≤ 0.25.

On to MQLT, for which the enrichment ratio is ≤ 0.25.

With DMHW, the enrichment ratio is ≤ 0.25.

As for QSKV, the enrichment ratio is ≤ 0.25.

Consider YMTC, for which the enrichment ratio is ≤ 0.25.

On to FQFG, for which the enrichment ratio was ≤ 0.25.

Consider LSCD, for which the enrichment ratio was ≤ 0.25.

Take RKQH: the enrichment ratio is ≤ 0.25.

As to NLDL, the enrichment ratio is ≤ 0.25.

On to QHEP, for which the enrichment ratio is ≤ 0.25.

Take FKWE: the enrichment ratio was ≤ 0.25.

Turning to GHTS, the enrichment ratio is ≤ 0.25.

For the variant LRDN, the enrichment ratio is ≤ 0.25.

On to RAYL, for which the enrichment ratio was ≤ 0.25.

As to IYLW, the enrichment ratio is ≤ 0.25.

Turning to FMVL, the enrichment ratio was ≤ 0.25.

PITS: the enrichment ratio was ≤ 0.25.

Consider ILFP, for which the enrichment ratio is ≤ 0.25.

IGRD: the enrichment ratio is ≤ 0.25.

INRE: the enrichment ratio was ≤ 0.25.

Regarding WFCS, the enrichment ratio was ≤ 0.25.

For the variant MDMM, the enrichment ratio is ≤ 0.25.

For the variant KSAD, the enrichment ratio was ≤ 0.25.

For YVIH, the enrichment ratio was ≤ 0.25.

FCFS: the enrichment ratio was ≤ 0.25.

On to THQP, for which the enrichment ratio is ≤ 0.25.

On to NECS, for which the enrichment ratio is ≤ 0.25.

As to WGLR, the enrichment ratio was ≤ 0.25.

Consider YCPA, for which the enrichment ratio is ≤ 0.25.

For LHGM, the enrichment ratio was ≤ 0.25.

On to ERCL, for which the enrichment ratio is ≤ 0.25.

For SPRY, the enrichment ratio is ≤ 0.25.

Take PCKV: the enrichment ratio is ≤ 0.25.

With HRDW, the enrichment ratio is ≤ 0.25.

For PHME, the enrichment ratio is ≤ 0.25.

With RKVV, the enrichment ratio was ≤ 0.25.

For the variant IDLG, the enrichment ratio is ≤ 0.25.

For the variant LQLA, the enrichment ratio was ≤ 0.25.

For VEGK, the enrichment ratio is ≤ 0.25.

On to YSGH, for which the enrichment ratio was ≤ 0.25.

YMWW: the enrichment ratio was ≤ 0.25.

For the variant ERWH, the enrichment ratio was ≤ 0.25.

Turning to LFDT, the enrichment ratio was ≤ 0.25.

For TNSV, the enrichment ratio worked out at 19.4.

In the case of DSPY, the enrichment ratio was ≤ 0.25.

As to QMKH, the enrichment ratio was ≤ 0.25.

Consider DPLY, for which the enrichment ratio is ≤ 0.25.

On to VSQV, for which the enrichment ratio was ≤ 0.25.

For the variant DWLC, the enrichment ratio is ≤ 0.25.

With TWHE, the enrichment ratio is ≤ 0.25.

Regarding QMDS, the enrichment ratio was ≤ 0.25.

As for MCNM, the enrichment ratio was ≤ 0.25.

Regarding YKNY, the enrichment ratio was ≤ 0.25.

Regarding DWCI, the enrichment ratio is ≤ 0.25.

Regarding NRRN, the enrichment ratio is ≤ 0.25.

For the variant PFRL, the enrichment ratio was ≤ 0.25.

Regarding RQHH, the enrichment ratio is ≤ 0.25.

Take KFMS: the enrichment ratio was ≤ 0.25.

In the case of IMKQ, the enrichment ratio was ≤ 0.25.

With GMVK, the enrichment ratio was ≤ 0.25.

Consider WHFV, for which the enrichment ratio was ≤ 0.25.

Take YAYP: the enrichment ratio was ≤ 0.25.

Take RMLT: the enrichment ratio was ≤ 0.25.

On to WVST, for which the enrichment ratio is ≤ 0.25.

Turning to FPNP, the enrichment ratio is ≤ 0.25.

As for YKLA, the enrichment ratio was ≤ 0.25.

In the case of YSYT, the enrichment ratio was ≤ 0.25.

For QHFP, the enrichment ratio was ≤ 0.25.

For the variant ATDI, the enrichment ratio was ≤ 0.25.

On to LVYW, for which the enrichment ratio is ≤ 0.25.

As for GFLS, the enrichment ratio was ≤ 0.25.

Take TGQP: the enrichment ratio is ≤ 0.25.

Turning to CAFH, the enrichment ratio came out at 9.67.

With NFRK, the enrichment ratio was ≤ 0.25.

As for WKHK, the enrichment ratio was ≤ 0.25.

On to RGNP, for which the enrichment ratio was ≤ 0.25.

With DMLR, the enrichment ratio was ≤ 0.25.

GFTH: the enrichment ratio is ≤ 0.25.

With HTDN, the enrichment ratio is ≤ 0.25.

As to GEWI, the enrichment ratio was ≤ 0.25.

As to ICCW, the enrichment ratio is ≤ 0.25.

On to MAHC, for which the enrichment ratio was ≤ 0.25.

Turning to KEPI, the enrichment ratio is ≤ 0.25.

Regarding WDYL, the enrichment ratio is ≤ 0.25.

On to SFWE, for which the enrichment ratio is ≤ 0.25.

Take HIYN: the enrichment ratio is ≤ 0.25.

Regarding KIAK, the enrichment ratio is ≤ 0.25.

Regarding PPFD, the enrichment ratio was ≤ 0.25.

Consider RHIY, for which the enrichment ratio was ≤ 0.25.

Regarding DQFI, the enrichment ratio was ≤ 0.25.

On to RCVG, for which the enrichment ratio was ≤ 0.25.

Take YWKR: the enrichment ratio was ≤ 0.25.

For the variant LYFQ, the enrichment ratio is ≤ 0.25.

Turning to WHNI, the enrichment ratio is ≤ 0.25.

As for HYLD, the enrichment ratio was ≤ 0.25.

For YGLT, the enrichment ratio stood at 7.13.

Take TNIN: the enrichment ratio is ≤ 0.25.

TIVN: the enrichment ratio is ≤ 0.25.

Regarding SFYI, the enrichment ratio is ≤ 0.25.

Consider MVPT, for which the enrichment ratio was ≤ 0.25.

On to IRRE, for which the enrichment ratio is ≤ 0.25.

As to DDRS, the enrichment ratio is ≤ 0.25.

On to MLGG, for which the enrichment ratio was ≤ 0.25.

As for QDTI, the enrichment ratio is ≤ 0.25.

As for KFRI, the enrichment ratio is ≤ 0.25.

With DCHS, the enrichment ratio is ≤ 0.25.

As for GHGK, the enrichment ratio is ≤ 0.25.

For the variant LLRV, the enrichment ratio is ≤ 0.25.

In the case of VCSK, the enrichment ratio was ≤ 0.25.

As to ARYP, the enrichment ratio is ≤ 0.25.

Turning to DSND, the enrichment ratio was ≤ 0.25.

Take MYPK: the enrichment ratio was ≤ 0.25.

For the variant GEMG, the enrichment ratio was 4.41.

As for TMDL, the enrichment ratio was ≤ 0.25.

Take DHCA: the enrichment ratio was ≤ 0.25.

For VIFC, the enrichment ratio is ≤ 0.25.

For the variant YTTW, the enrichment ratio is ≤ 0.25.

As for EMES, the enrichment ratio is ≤ 0.25.

In the case of QFHA, the enrichment ratio was ≤ 0.25.

QCFF: the enrichment ratio was ≤ 0.25.

For the variant GDFY, the enrichment ratio is ≤ 0.25.

Regarding TFIE, the enrichment ratio is ≤ 0.25.

Turning to SKCV, the enrichment ratio was found to be 12.3.

For the variant TFMG, the enrichment ratio was 1.47.

For the origin of these results see a collection of fitness landscapes (doi:10.1126/science.1257360).
